# Data published in the supplement of paper PMC7826260.
# This is one part of the list. Each Rep nickase domain was tested in vitro on the same pool of single strands (1 h at 37 °C, 3 µM enzyme); the outer parts of the 90-letter strands are left off. Uncut reads are compared with the no-enzyme pool on a log2 scale; more negative means more cut, near 0 not cut, and no call is made. Because reads are shares of a total, they shift together, so uncut sequences can rise above 0 when many others are cut.
# Tested on: T1, Rep nickase domain of tomato golden mosaic virus
# T1 sequence (Rep 1-124, printed without the tag): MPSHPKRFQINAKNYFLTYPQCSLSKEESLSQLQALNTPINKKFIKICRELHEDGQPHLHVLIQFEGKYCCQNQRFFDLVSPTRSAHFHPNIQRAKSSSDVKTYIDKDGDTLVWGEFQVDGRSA
# Assay: uncleaved DNA left, log2 of reads against the no-enzyme library (log2 ratio); higher = less cleavage (more negative = more Rep cleavage of the k-mer); sequences stand for … in CTCGTCCG…ACCGGAGA
# Method: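 A pool of 90-nt single-stranded DNAs with seven random bases just before the constant AC of the nick site (name = the seven bases) was cut by 3 µM recombinant His6-SUMO-tagged Rep nickase domain (300 nM DNA, 50 mM HEPES pH 8.0, 50 mM NaCl, 1 mM MnCl2, 1 h, 37 °C, three replicates). Uncut DNA was amplified and sequenced.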
row,Sequence,uncleaved DNA left (log2)
1,CCTAGCT,0.0297
2,GGGCTGC,0.07
3,AAGGTGA,0.179
4,TACTGAA,0.0325
5,TAAATGG,0.0221
6,CATACGC,-0.133
7,ATTATGC,-0.0874
8,ATATTGG,0.0881
9,CTGGTCA,-0.0639
10,CGCTGAG,0.184
11,GGTACAC,0.0745
12,AAAGCGA,-0.00575
13,ACGACCC,0.112
14,TGGGCCA,0.168
15,GTAGTTA,0.0241
16,TTGTTGG,-0.144
17,ATATGCC,-0.0655
18,CTTACCC,-0.0796
19,CCAACAT,0.117
20,TGCTTTT,-0.123

row,Sequence,uncleaved DNA left (log2)
1,TCTGGTA,0.0513
2,AATTGCT,-0.0545
3,CAAAAGT,-0.063
4,CGAGATC,0.081
5,AATTAGT,-0.258
6,CTCTACA,-0.0863
7,GACGGCT,-0.103
8,TTCAATC,0.224
9,GGTACTA,-0.0267
10,CTGTATG,-0.207
11,GGATTCT,-0.0227
12,GTAAAGC,0.0345
13,CTGGATG,0.0939
14,TCGGCAC,0.0298
15,ATCACCG,0.00483
16,CAGCGCT,-0.163
17,CTTGACC,-0.122
18,TGCTTTA,-0.0768
19,CCGGAGA,-0.0318
20,CACTACC,-0.0926
